# Sequences with one replicate were seen in a single cluster, so their values are uncertain.
# System: ATP
# Assay: switch fluorescence ratio, 500 uM ATP over buffer (Cy3 cluster intensity, sum of 5 cycles each) (fold (ratio)); higher = stronger signal-on switching upon ATP binding; sequences stand for … in TCGTCGGCAGCGTCAGATGTGTATAAGAGACAGTTTTTTTTTTTTTTTTTTTTTTTTT…TC
# Conditions: aptamer strand: ATP DNA aptamer (quencher-CACCTGGGGGAGTATTGCGGAGGAAGG + anchor), 100 nM annealed; ATP concentration: 500 uM; one replicate
# How it was run: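 Switching-strand clusters labelled with Cy3 on a modified Illumina MiSeq flow-cell were annealed to 100 nM quencher-labelled ATP aptamer, imaged in selection buffer, and re-imaged after 15 min with 500 uM ATP at 22 °C. This was done over five cycles with NaOH stripping and re-annealing in between. The fluorescence ratio is summed target-cycle over summed buffer-cycle Cy3 intensity per cluster, averaged per switch-domain sequence, excluding clusters outside 100-1000 RFU.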
# 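Further: ATP exposure 15 min at 22 °C before imaging.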
row,Sequence,switch fluorescence ratio
1,GCGCGAGTCG,1.02
2,GCGCGATTGG,1.01
3,GCGCGCCGAG,0.975
4,GCGCGCTTT,0.96
5,GCGCGGGGG,1
6,GCGCGTGGG,1.03
7,GCGCGTTTCG,0.942
8,GCGCTATGG,1.48
9,GCGCTCAGGG,1.03
10,GCGCTGAGGG,0.986
11,GCGCTGGGTT,1.03
12,GCGCTTATCT,1.05
13,GCGGACAGGT,1.08
14,GCGGACCCAT,1.07
15,GCGGAGGGCT,1.01
16,GCGGAGGGGA,1.01
17,GCGGATAGCT,0.963
18,GCGGATATCC,1.09
19,GCGGATCACC,1.02
20,GCGGCACGTT,0.987
21,GCGGCATAGT,1.03
22,GCGGCATGAA,0.989
23,GCGGCATGAT,0.99
24,GCGGCCACGG,1.03
25,GCGGCCCAG,1.01

row,Sequence,switch fluorescence ratio
1,GCGGCCGAGT,1.05
2,GCGGCCGGAG,1
3,GCGGCCTGCG,0.963
4,GCGGCGAGCG,1.03
5,GCGGCGCACT,0.999
6,GCGGCTAGTT,1
7,GCGGGAACAC,1.03
8,GCGGGAATAG,1.18
9,GCGGGACGGG,0.976
10,GCGGGATTTC,1.06
11,GCGGGTAATA,0.978
12,GCGGGTTGAC,1.06
13,GCGGTCACCG,0.978
14,GCGGTCCGAC,1.09
15,GCGGTCTTT,0.981
16,GCGGTGCAAG,0.993
17,GCGGTTTTGC,1.03
18,GCGTACGTGT,0.994
19,GCGTACTATC,1.02
20,GCGTAGCCA,0.984
21,GCGTAGCTTA,0.991
22,GCGTATAGAC,1.05
23,GCGTCCCGAG,1.02
24,GCGTCCTCTA,1.06
25,GCGTCTTTTA,1.02

row,Sequence,switch fluorescence ratio
1,GCGTGACCTT,1.14
2,GCGTGCAGTG,0.969
3,GCGTGGAATG,0.965
4,GCGTGGATGC,1.02
5,GCGTGGGTAG,1.03
6,GCGTGGGTTA,1.05
7,GCGTGTCGCT,1.01
8,GCGTGTCTGA,1.09
9,GCGTTACCAG,1.01
10,GCGTTCAAAA,1.05
11,GCGTTCAGAG,0.99
12,GCGTTGAAAA,1.01
13,GCGTTTCGGC,0.984
14,GCGTTTTTGA,0.98
15,GCTAAAAGGG,0.981
16,GCTAAACGGT,1.02
17,GCTAAAGAGT,1.01
18,GCTAACGTTT,1.06
19,GCTAAGTTGC,1.02
20,GCTAAGTTGG,1
21,GCTAATAAAA,1.01
22,GCTAATCTTA,1.05
23,GCTACGGGTT,0.974
24,GCTACTGCTG,1.02
25,GCTACTTTTT,0.976

row,Sequence,switch fluorescence ratio
1,GCTAGAACAA,1.02
2,GCTAGAGAGA,0.962
3,GCTAGAGGTT,0.981
4,GCTAGAGT,0.973
5,GCTAGCAAAG,0.981
6,GCTAGCAGTT,0.993
7,GCTAGCGCTG,1.04
8,GCTAGCTTAG,0.994
9,GCTAGGAATG,1.03
10,GCTAGGAGCT,0.957
11,GCTAGGCAAG,0.995
12,GCTAGTTTCT,0.994
13,GCTATACGAG,3.57
14,GCTATCTGAG,1.04
15,GCTATGTAAG,0.985
16,GCTATGTACC,1.13
17,GCTCAAAGCG,1.01
18,GCTCAATAAG,1.03
19,GCTCACAGGC,1.09
20,GCTCACCAGT,1.07
21,GCTCATATTG,0.994
22,GCTCCAACGG,1.12
23,GCTCCCAACG,1.63
24,GCTCCCAGGC,1.79
25,GCTCGCAGCT,1.09

row,Sequence,switch fluorescence ratio
1,GCTCGCGGCT,0.975
2,GCTCGGATA,0.964
3,GCTCGGGGCG,1.03
4,GCTCGGTGGC,1.05
5,GCTCGTCGCA,0.998
6,GCTCGTTGTT,0.983
7,GCTCTACCGT,1.07
8,GCTCTAGTGC,1.04
9,GCTCTATCG,0.971
10,GCTCTCCAAC,1.16
11,GCTCTGATAG,1.07
12,GCTCTTTTGT,0.973
13,GCTCTTTTTG,1.01
14,GCTGAAGGGG,1.01
15,GCTGAATACG,1.04
16,GCTGAATAG,1.03
17,GCTGAATAGG,1.01
18,GCTGACACAT,1.06
19,GCTGACCTGT,0.969
20,GCTGACCTTT,0.996
21,GCTGAGAGCT,0.982
22,GCTGAGGGTC,0.99
23,GCTGAGTCGG,1
24,GCTGAGTTTA,0.976
25,GCTGATCGTT,1

row,Sequence,switch fluorescence ratio
1,GCTGATTCGG,1.02
2,GCTGCAAAGC,1.09
3,GCTGCAGGAT,0.996
4,GCTGCATTAT,1.19
5,GCTGCGTTGG,1
6,GCTGCTAGAA,1.02
7,GCTGCTGAGC,1.01
8,GCTGGAGCCG,1.07
9,GCTGGCATCA,0.993
10,GCTGGCTTGT,0.98
11,GCTGGTGACT,1.01
12,GCTGGTTAC,1.04
13,GCTGTAATGA,1.02
14,GCTGTACTCG,1.56
15,GCTGTAGATG,0.993
16,GCTGTCATGC,1.03
17,GCTGTGGTAA,1
18,GCTGTTAC,1.17
19,GCTGTTAGCG,0.988
20,GCTGTTATTT,0.964
21,GCTTAATTAC,1.09
22,GCTTAATTTT,1.02
23,GCTTAGGAGC,0.993
24,GCTTCAAAG,0.988
25,GCTTCAGTAC,1.17

row,Sequence,switch fluorescence ratio
1,GCTTCCAGCG,1.02
2,GCTTCCCATG,1.05
3,GCTTGAACCT,1.15
4,GCTTGACGGC,1.1
5,GCTTGCGTTC,1.03
6,GCTTGGACTT,1.02
7,GCTTGGGTCG,1.02
8,GCTTGGGTGG,0.965
9,GCTTGGTCAA,1
10,GCTTGGTGAC,1.01
11,GCTTGTCATG,0.984
12,GCTTGTGGTG,1
13,GCTTGTGTGG,0.981
14,GCTTGTTCTG,0.953
15,GCTTTAAAGA,0.964
16,GCTTTAATCG,0.954
17,GCTTTATCGT,0.95
18,GCTTTCCCGT,1.08
19,GCTTTCTAGA,0.988
20,GCTTTCTGGC,1.06
21,GCTTTCTGT,0.993
22,GCTTTCTTGA,1.02
23,GGAAAAGGAC,1.04
24,GGAAACGTTA,1.12
25,GGAAACTTAT,1.01

row,Sequence,switch fluorescence ratio
1,GGAAAGTAGT,0.98
2,GGAAATTAGG,1.01
3,GGAAATTTAG,1.01
4,GGAACAACCC,1.02
5,GGAACCATTA,0.974
6,GGAACCTATG,1.02
7,GGAACCTGTG,1.02
8,GGAACGACGG,0.981
9,GGAACTATTG,0.997
10,GGAAGCCTAG,0.977
11,GGAAGCTGAT,0.992
12,GGAAGGCCGC,1.01
13,GGAAGGGCTA,0.971
14,GGAAGGGGCG,1.1
15,GGAATAGTTA,1.02
16,GGAATATTGA,0.998
17,GGAATCTAGG,0.982
18,GGAATGCCCT,0.999
19,GGAATGCTTG,0.984
20,GGAATTACGT,0.997
21,GGAATTAGTC,1
22,GGAATTGCAA,0.989
23,GGACAAGAGG,0.971
24,GGACAGTGGG,1.01
25,GGACCAAGGC,1.05
